In the supplement of paper PMC3334620:
Over roughly 33,000 sequences, “E-score (-0.5 to 0.5)” has its median near -0.016; the highest 2% begin near 0.31. Some of the results follow.

molecular target: Cst6 (UniProt P40535); experiment: PBM E-score (8-mer binding enrichment) (E-score (-0.5 to 0.5)); higher = stronger / more preferred TF binding; most listed sequences are background and not binding sites; conditions: protein concentration: 200 nM; construct: GST-DNA-binding domain
Outline: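 Masliner-normalised scans of fluorescent anti-GST signal were the basis for scoring. That signal came from GST-tagged yeast transcription factors applied at about 100-200 nM to double-stranded universal all-10-mer Agilent arrays on fresh or once-stripped slides. Each ungapped eight-base word, pooled with its reverse complement, received an E-score from the Universal PBM Analysis Suite.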

Point of comparison: CAATGCCC, “PBM E-score” value -0.136. Against it:
- GTTGCAAA — higher, 0.0995
- AATTAATC — higher, 0.197
- AGGGTCTC — lower, -0.24
- CTGCATGC — higher, 0.00613
- CTCCGCGC — lower, -0.15
- GATCTCAC — higher, 0.148
- CCGACTAA — lower, -0.144
- ATCTATGC — higher, 4e-05
- TCTCGTCA — higher, 0.329
- AAGATCAA — higher, 0.222
- GACACTAA — higher, -0.0292
- CGTGGAGA — lower, -0.2
- ACGATTCG — higher, 0.0336
- GGCTTAAC — higher, -0.0412
- ATGAGCGG — higher, 0.03
- GAGGCAAC — higher, -0.113
- AAGGGATG — higher, -0.131
- CGCTGCTA — lower, -0.27
- TCCACCGA — higher, -0.102
- GTTGGTAA — higher, 0.177
- ACGTCCAA — higher, 0.154
- GCTTATAC — higher, 0.0687
- AGAGAGTA — higher, 0.0551
- TCTGGAAA — higher, 0.125
- CCCAGGTA — lower, -0.278
- CCCCTCGA — higher, 0.00621
- CAATGGGC — lower, -0.165
- GAGATTGA — higher, 0.0292
- CATTCCCA — higher, -0.0105
- ATGCCGCA — higher, 0.353
- ACCTGGAA — higher, 0.154
- AGACGACA — higher, -0.106
- ACCATAAG — higher, -0.00358
- ATATCTGA — higher, 0.237
- ACCATTTA — higher, 0.205
- CTGCGGTA — higher, 0.0375
- CCAATGCG — higher, -0.0588
- GTTGAAGA — higher, 0.00973
- TTACCTAA — higher, 0.238
- GAATATTA — higher, 0.188
- GGGCGTAC — higher, -0.134
- CCCAGCTA — lower, -0.2
- GCTCATCC — higher, -0.0964
- AAACCGCC — higher, 0.0699
- CGCACGTA — higher, 0.103
- ACGCCCCC — lower, -0.274
- CAGACGTA — higher, 0.0968
- GACCAAGA — higher, -0.0252
- TTCACAAA — higher, 0.0753
- CAGGGATA — higher, -0.0197
- CCCGCGCC — higher, -0.026
- AGAACGTA — higher, 0.0775
- AATTAGCG — higher, 0.0582
- ACTTCCAG — higher, -0.0948
- AGTAGCCG — higher, -0.00111
- AGAGTAAT — higher, 0.243
- TCATTGCA — higher, 0.321
- TCTCAACA — higher, 0.0426
- GAACTCGC — higher, 0.0267
- AGGGACAG — lower, -0.379
- CGCCCAAC — lower, -0.203
- CAATGCGA — higher, 0.136
- ACCGCTGG — lower, -0.195
- CCTCAAAC — higher, -0.11
- CCACCCCG — higher, -0.12
- ATTCTAAG — higher, 0.118
- AATGTCTC — higher, -0.0571
- AACAATGA — higher, 0.269
- CCCTCCCC — higher, -0.128
- GAAGAGGA — lower, -0.285
- ACTCTTCT — higher, -0.112
- CTAGCTCC — lower, -0.168
- AGGTCCGA — higher, -0.0447
- AGGCTGAC — higher, 0.021
- CCATAATC — higher, 0.0864
- ATGCCGTG — higher, 0.283
- AAGCTAGC — lower, -0.185
- ATGAACAG — higher, -0.0447
- CAGGCGTC — higher, -0.00038
- ACTGACAG — higher, -0.00331
- AGAGGAAC — lower, -0.167
- CTCCTCCA — higher, -0.0278
- ATGAATAG — higher, 0.0516
- AGCGTTAG — higher, -0.0124
- CCCTTAGG — lower, -0.236
- GTGAAAAA — higher, 0.166
- CAATCGAC — higher, -0.00342
- ACGAGAGT — higher, -0.0164
- GTTATTTA — higher, 0.16
- AGCTTAGC — higher, -0.128
- AAAGCTGA — higher, 0.0262
- AGGTTTCC — lower, -0.146
- GCCCGTAA — higher, -0.0223
- AGATCTAA — higher, -0.00708
- AGAGTGCG — higher, 0.0193
- GAAGTTGA — higher, 0.0113
- AAGGGTAT — higher, 0.0744
- CGACCGAA — higher, -0.118
- CAGAGAAG — higher, -0.0752
- GGAATAGA — higher, 0.141
- CCATAGAG — lower, -0.189
- GCCGTTCA — higher, 0.119
- GAGACCTA — lower, -0.159
- ACCACAAT — higher, -0.0406
- GAACGCGC — higher, 0.042
- GCGACGAC — lower, -0.217
- AGAGTGGA — higher, -0.102
- CACCGATC — higher, -0.0918
- AGGTGAAA — higher, 0.174
- ACTCACAA — higher, -0.0198
- AATTCATG — higher, 0.232
- CCACAAGG — lower, -0.141
- GCGGATCC — lower, -0.244
- CCACTAGC — higher, -0.0858
- ACACAGAT — higher, 0.0983
- CCCAGCGA — lower, -0.148
- GGCCAACA — higher, -0.132
- AGACGGTG — higher, -0.121
- CAGCAATG — higher, -0.0536
- CAAGACAG — higher, 0.00208
- ACGAGTTC — higher, 0.0943
- CTACCTTC — higher, 0.00911
- AACGCCAC — higher, 0.0249
- CATGATTA — higher, 0.3
- CAAAGACG — higher, -0.00769
- AAAGCAGC — higher, -0.00842
- CTCATCGA — higher, -0.0055
- ACTACCCG — lower, -0.157
- GCCGCCGC — higher, 0.205
- ATGCCGAC — higher, 0.00357
- ATGGGGAC — lower, -0.253
- ACCTCTCA — higher, -0.0889
- CTACTAAC — higher, 0.104
- ACAAACTG — higher, -0.133
- AGGCGAGG — lower, -0.149
- CGGGAAGA — higher, 0.0622
- ATGTTATC — higher, 0.0807
- AGTGCTGG — higher, -0.12
- GCCAGACA — the same, -0.136
- GGTGTCAC — higher, 0.137
- CTACTGAC — higher, -0.0156
- ATACCGGG — lower, -0.224
- AGAACTAT — higher, 0.203
- ACCCGAGC — lower, -0.164
- TGTATCAA — higher, 0.196
- ATTCTCTG — higher, -0.0797
- GAGCTATA — higher, -0.0375
- AGTTATCA — higher, 0.0276
- CGCCTCCG — lower, -0.189
- AGACACCA — higher, -0.0187
- ACCCCGCA — higher, -0.112
- CCTGTTGA — higher, -0.0446
- AGAGTACA — lower, -0.177
- AGTTGTAT — higher, 0.188
- ATTACGGG — higher, 0.00617
- GAGCGTTA — higher, 0.0716
- ATTGGCAC — higher, -0.0501
- GATACGGA — higher, 0.111
- CTACGGAC — lower, -0.227
- TAAGATCA — higher, 0.165
- GCAAGCCA — lower, -0.273
- GAATATGC — higher, 0.0565
- AGATCGCT — lower, -0.198
- ATTCAAAT — higher, 0.172
- CTCGCTAA — higher, 0.0589
- AGGCAAAT — higher, 0.164
- AAAAACAG — higher, 0.034
- TCGACCCA — higher, -0.0691
- ATGCATGC — higher, 0.0469
- AACGGAAC — higher, 0.0866
- AGCAATAA — higher, 0.0413
